Measurements reported in PMC7278352, “Phosphorylation of the overlooked tyrosine 310 regulates the structure, aggregation, and microtubule- and lipid-binding properties of Tau” (The Journal of Biological Chemistry, 2020).

B1: Tau 4F/pTyr-394 (phosphorylated only at Tyr-394) (natural protein)
chain: not shown
modifications: phosphotyrosine at Tyr-394 (complete phosphorylation)
notes: also called 4F/pY394; source: E. coli BL21, purified; phosphorylated in vitro by recombinant c-Abl, purified by RP-HPLC
B2: Tau 4F/Tyr-394 (all tyrosine residues except Tyr-394 mutated to phenylalanine) (natural protein)
chain: not shown
notes: source: E. coli BL21, purified (MonoS cation exchange, RP-HPLC C4)

Molecular target: the molecule itself
Test: heparin-induced aggregation (ThT fluorescence, sedimentation by ultracentrifugation with SDS-PAGE, EM, CD); self-association: 10 uM protein with 2.5 uM heparin (heparin:protein 1:4) in 10 mM phosphate pH 7.4, 50 mM NaF, 0.5 mM DTT, 37 C, orbital shaking at 1000 rpm; fibrils pelleted at 200,000 x g for 2 h

| Protein | binding result |
| --- | --- |
| B1 | binds |
| B2 | binds |
